According to PubChem BioAssay AID1347073 (National Center for Advancing Translational Sciences (NCATS), 2019):
Among all 45,000 compounds or so, about 200 (0.44%) were called active. About 7% were inconclusive and are not listed. Calls follow the shape of the dose curve; as a rule, active = well fitted activation curve with a large enough effect; inconclusive = small, poorly fitted or top-dose-only effect; inactive = no such curve, though single readings can be large or run the other way. The list shows a part of the results.

assay: qHTS of TDP-43 Inhibitors: NCGC Sytravon Library Screen; conditions: yeast TDP-43 toxicity rescue, BacTiter-Glo growth, 24 h; series mostly up to 46.1 µM; growth rescue (activation): at the top concentration; also: nearly all actives have a fitted effect of over 55% in size; as to growth rescue (activation): 0% is about no effect
In short: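 TDP-43-expressing yeast, pregrown in raffinose, seeded at OD600 0.02 in galactose medium with compound for 24 hr at 30 deg C. Growth read by BacTiter-Glo luminescence, so rescue of toxicity appears as activation.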
Potency is read from the fitted curve at half-maximal effect.

Compound	growth rescue (activation)	Potency
N#Cc1c(NC(=O)CSc2nc(-c3ccccc3)cc(C(F)(F)F)n2)sc2c1CCC2	inactive: 7.02%	–
NS(=O)(=O)c1ccccc1	inactive: -3.15%	–
Cc1cccn2c(CN3CCCC(c4ccccc4)C3)c(C(=O)N3CCOCC3)nc12 (configuration not stated)	inactive: 4.26%	–
CCN(CC)C(=O)c1csc(COCCO)n1	inactive: 1.02%	–
COc1ccc(NC(=S)N2CCC(NC(=O)c3ccc(OC)cc3)CC2)cc1	inactive: 0.434%	–
Cc1ccc(-c2nnc3c4ccccc4c(C)nn23)cc1NC(=O)c1cccc(Br)c1	inactive: 1.39%	–
c1ccc(-c2cc3c(N4CCCCC4)ncnc3s2)cc1	inactive: 27.8%	–
Cc1ccc(C(=O)N/C(=C/c2ccco2)C(=O)N2CCCCCC2)cc1	inactive: -0.377%	–
COc1ccc(-c2nc(CS(=O)(=O)CC(=O)NCc3ccccc3Br)c(C)o2)cc1	inactive: 4.02%	–
O=C(COC(=O)CCc1ccccc1)NNC(=O)c1ccccc1	inactive: -4%	–
CCOc1ccc(NC(=S)N/N=C(\C)Cc2ccc(OC)cc2)cc1	inactive: 13.2%	–
CCOC(=O)Cc1c(Sc2ccccc2)c2cc(C)ccc2n1C	inactive: 19.2%	–
CC(OC(=O)c1oc2ccccc2c1COc1ccccc1)C(=O)NC(N)=O (configuration not stated)	inactive: -1.44%	–
COc1ccc(C(=O)C2CCN(CC(=O)Nc3ccc(C)cc3)CC2)cc1	inactive: -21.2%	–
COc1ccc(OC)c(C2NC(=S)NC(C)=C2C(=O)Nc2ccccn2)c1 (configuration not stated)	inactive: 6.56%	–
COCCCNC(=S)NCCCNc1nc2cc(C)cc(C)c2cc1C#N	inactive: 23.2%	–
CCN(Cc1ccccc1)CC(O)COC(c1ccc(OC)cc1)c1ccc(OC)cc1 (configuration not stated)	inactive: 4.68%	–
COC(=O)C1CC(O)CN1C(=O)Nc1cccc(C(F)(F)F)c1 (configuration not stated)	inactive: -0.695%	–
O=C1CCC(C(=O)N(CCO)Cc2ccccc2)CN1CC1CCCCC1 (configuration not stated)	inactive: -12%	–
O=C(CNC(=O)c1cccc(OC(F)F)c1)OCC(=O)c1ccccc1	inactive: 9.93%	–
O=C(Nc1ccc2oc(=O)ccc2c1)c1ccc(-c2ccc(Cl)cc2)o1	inactive: 4.71%	–
O=C(CSc1nnc(NC(=O)c2cccc(F)c2)s1)NC1CC1	inactive: 0.819%	–

Compound	growth rescue (activation)	Potency
Cc1ccccc1NCCC(=O)Nc1ccc(F)cc1	inactive: -0.2%	–
Cc1ccc([N+](=O)[O-])cc1NC(=O)C(C)N1CCCCC1 (configuration not stated)	inactive: 14%	–
O=C(c1cc2ccccc2oc1=O)N1CCOCC1	inactive: 13.6%	–
Cc1cc(C(C)(C)C)ccc1OCC(=O)N/N=C\c1c(C)n(C)n(-c2ccccc2)c1=O	inactive: 11.8%	–
Cc1cc(C)c2cc(CN(CCCO)S(=O)(=O)c3ccccc3F)c(=O)[nH]c2c1	inactive: 0.464%	–
CCCCCCCCCCCCCCCC[n+]1cccc(C(=O)N(CC)CC)c1	inactive: -94.4%	–
CCOC(=O)/C(=C/c1ccc(Cl)cc1)NC(=O)c1ccco1	inactive: 0.387%	–
Cc1ccc(C(C)C)c(OCC(O)CN2CCN(c3ccccc3F)CC2)c1 (configuration not stated)	inactive: 13%	–
O=C1CCCC2=C1C(c1cccc(O)c1)c1c(ccc3ncccc13)N2 (configuration not stated)	inactive: -5.36%	–
COc1ccc(N=C2SC(CC(=O)Nc3ccccc3)C(=O)N2Cc2ccccn2)cc1 (configuration not stated)	inactive: 7.35%	–
Cc1cc(NC(=O)c2ccc(COc3ccccc3Cl)o2)no1	inactive: 8.79%	–
COc1ccc(/C=C2/Sc3ccc(C(=O)N4CCc5ccccc5C4)cc3NC2=O)cc1	inactive: 22.3%	–
c1cnc2c(-c3ccc4nccn4c3)cccc2c1	inactive: 8.15%	–
COc1ccc(C(=O)CSc2nnc(CNC(=O)c3ccccc3F)n2C)cc1OC	inactive: -5.91%	–
Cc1ccc(C)c(NC(=O)C(Sc2nnc(-c3cccs3)o2)c2ccccc2)c1 (configuration not stated)	inactive: 2.79%	–
Cc1ccc(-c2noc(-c3ccccc3C(=O)NCc3ccco3)n2)cc1	inactive: 27.5%	–
COc1ccc(NC(=O)Cc2cccc(F)c2)cc1S(=O)(=O)Nc1ccccc1Cl	inactive: 35.5%	–
Cc1nc2nc(-c3ccc(Cl)cc3)[nH]n2c(=O)c1Cc1ccccc1	inactive: 6.36%	–
CCc1ccc(CNc2ccc3c(c2)ncn3C(C)(C)C)cc1	inactive: 8.36%	–
CC(=O)NC(C)(c1ccccc1)c1nc(-c2ccc(N(C)C)cc2)cs1 (configuration not stated)	inactive: 13.8%	–
O=c1cc(-c2cccc3ccccc23)[nH][nH]1	inactive: 19.7%	–
CN(Cc1ccccc1)C(=O)COC(=O)c1cc(NS(=O)(=O)c2cccs2)ccc1O	inactive: 8.19%	–

Compound	growth rescue (activation)	Potency
CCCCCC(=C/c1ccccc1)/C=N/Nc1ccc(S(=O)(=O)N2CCOCC2)cc1[N+](=O)[O-]	inactive: 3.47%	–
Cc1ccc2nc(SC(C)C(=O)NC3CCCC3)[nH]c2c1 (configuration not stated)	inactive: 5.16%	–
Cc1cc(C(=O)OCC(=O)c2ccc(Cl)c([N+](=O)[O-])c2)c2cccc(C)c2n1	inactive: 24%	–
CC(C)N(C(=O)COC(=O)[C@@H]1CC(O)CN1S(=O)(=O)c1ccc(C(C)(C)C)cc1)C(C)C (some centres not stated)	inactive: 2.25%	–
Cc1ccc(-n2c(SCC(=O)Nc3cccc(S(=O)(=O)NC4=NCCCCC4)c3)nc3ccccc3c2=O)cc1	inactive: 10.7%	–
Cc1nnc(SCC(=O)Nc2nonc2C)s1	inactive: -4.23%	–
O=C(Nc1cccc2nsnc12)c1cccnc1Cl	inactive: 23.4%	–
Cc1c(CC(=O)NCC(=O)NCC(=O)O)c(=O)oc2cc3oc4c(c3cc12)CCCC4	inactive: -1.45%	–
CN(CCC#N)C(=O)COC(=O)c1ccc2[nH]c3c(c2c1)CCCC3	inactive: 1.31%	–
Cc1ccc(C(=O)CSc2nnc3c4ccccc4nc(C(C)(C)C)n23)cc1	inactive: -0.469%	–
COC(c1ccccc1)c1nnc(CCC(=O)NC2CCCCC2)o1 (configuration not stated)	inactive: 14.6%	–
O=C(O)CN(c1ccccc1)S(=O)(=O)c1cc(C(F)(F)F)cc(C(F)(F)F)c1	inactive: -7.82%	–
COc1ccc(S(=O)(=O)N(C)CC(=O)NCCCn2ccnc2)cc1Cl	inactive: 11.6%	–
O=C1CC(N2CCN(c3cccc(C(F)(F)F)c3)CC2)C(=O)N1c1ccccc1F (configuration not stated)	–	active: 15.8 µM
COc1ccc(CNC(=O)CCc2c[nH]c3ccccc23)cc1	inactive: 11.6%	–
C=CCN(C(=O)c1ccccc1)C1CCS(=O)(=O)C1 (configuration not stated)	inactive: -15%	–
COc1ccc(/C=C/C(=O)Nc2cc(=O)n(C)c(=O)n2C)cc1	inactive: 20.1%	–
CCNC(=S)N(CCc1c(C)[nH]c2ccc(OC)cc12)Cc1cccnc1	inactive: 11.5%	–
CO/N=C/C(=N\Nc1ccc(C)cc1)C(=O)c1ccc(OC)cc1	inactive: 6.76%	–
NC(=O)C1CCN(C(=O)CCC(=O)c2cccs2)CC1	inactive: -16.9%	–
CC(NC(=O)C1CCC1)c1ccc(Br)cc1 (configuration not stated)	inactive: 31.2%	–
CC(C)=CC(=O)Nc1c(C)cc(C)cc1Cl	inactive: -12.3%	–

Compound	growth rescue (activation)	Potency
CCn1c(=O)c(C(=O)NNC(=O)Cc2ccccc2)c(O)c2ccccc21	inactive: -6.87%	–
Cc1nnc(SCC(=O)Nc2ccc3c(c2)OCO3)s1	inactive: -19%	–
O=C(COC(=O)c1ccccc1O)Nc1ccc2ccccc2c1	inactive: -0.401%	–
Cc1cccc(C(=O)NNC(=O)c2c(-c3ccccc3Cl)noc2C)c1O	inactive: 17.8%	–
COC(=O)CN1C(=O)c2cccc3cccc1c23	inactive: 9.65%	–
Cc1nn(-c2ccccc2)c(C)c1C(=O)NCc1ccccc1F	inactive: 22.6%	–
CN(C)C(=O)CSc1nnc(Cc2ccc3c(c2)OCO3)o1	inactive: -3.58%	–
O=S(=O)(Nc1nccs1)c1ccc(NS(=O)(=O)c2c(F)cc(F)c(Cl)c2F)cc1	inactive: 5.51%	–
C/C(CC(C)C)=N\Oc1nc(C)cc(C)n1	inactive: 31.5%	–
COc1cc(/C=N/NC(N)=O)ccc1OC(=O)c1ccco1	inactive: 1.87%	–
CCOc1ccc(Cl)cc1-c1cc(C(=O)NCCc2ccncc2)[nH]n1	inactive: 6.11%	–
COc1ccccc1OCc1ccc(C(=O)NC(C)c2ccccc2)o1 (configuration not stated)	inactive: -10.7%	–
COc1cccc(CN2CCC(C(=O)N3CCN(c4ccccc4F)CC3)CC2)c1	inactive: 2.98%	–
Cc1ccc(C)c(NC(=O)CN(C)C(=O)[C@@H](NC(N)=O)C(C)C)c1	inactive: 2.15%	–
CCCNC(=O)COC(=O)c1c2c(nc3ccccc13)CCC2	inactive: 6.18%	–
COc1cccc(NC(=S)N2CCCN(Cc3ccc(F)cc3)C2)c1	inactive: -14.7%	–
Cc1ccn2c(CNCC3OCCc4ccccc43)c(C(=O)N3CCCCCC3)nc2c1 (configuration not stated)	inactive: 6.55%	–
Cc1cc(C)c2c(c1)NC(C(=O)O)C1CC=CC21 (configuration not stated)	inactive: -7.07%	–
Cc1noc(N)c1C1(O)C(=O)N(C(C)C)c2ccccc21 (configuration not stated)	inactive: 3.13%	–
O=C(COC(=O)c1cc[n+]([O-])cc1)Nc1ccc([N+](=O)[O-])cc1C(F)(F)F	inactive: 13.3%	–
Cc1ccc(C(=O)NCCNC(=O)COc2ccc(C)c(C)c2)cn1	inactive: 0.327%	–
Cc1ccc(S(=O)(=O)Nc2ccccc2C(=O)N2CCCCC2C)c(C)c1NS(C)(=O)=O (configuration not stated)	inactive: 0.194%	–

Compound	growth rescue (activation)	Potency
O=C(NCc1ccccc1)C(c1ccncc1)N(C(=O)c1csnn1)c1ccccc1F (configuration not stated)	inactive: -4.18%	–
CC(=O)Nc1ccc(/C=C(\C#N)C(=O)NC2CCCCC2C)cc1 (configuration not stated)	inactive: -7.89%	–
CCOc1ccc(-c2cc(C(=O)NCc3cc(C(F)(F)F)cc(C(F)(F)F)c3)[nH]n2)c(C)c1	inactive: 1.29%	–
CCN(C(=O)c1ccc(Cl)cc1[N+](=O)[O-])c1ccccc1C	inactive: 13.9%	–
Nc1c(-c2cccc(Cl)c2)cnc2c(-c3ccccc3)cnn12	inactive: 13.3%	–
COc1ccc(/C=C(\C#N)C(=O)NCCCn2ccnc2)cc1	inactive: -6.51%	–
CC(=O)Nc1cccc(Oc2nc(C(F)(F)F)nc3ccccc23)c1	inactive: -0.356%	–
CC(C)(C)NC(=O)C(c1ccncc1)N(CC1CCCO1)C(=O)Cn1nnc(-c2ccc(F)cc2)n1 (configuration not stated)	inactive: -28.7%	–
CC(C)c1cc(C(=O)N2CCN(C(c3ccccc3)c3ccccc3)CC2)no1	inactive: 13.6%	–
O=C(COc1ccccc1O)NCCN1CCOCC1	inactive: -1.55%	–
CCCCC1N2CC3([N+](=O)[O-])CN1CC([N+](=O)[O-])(C2)C3(C)C (configuration not stated)	inactive: -17.3%	–
N#CC1=C(O)C(c2ccccc2)n2c1nc(=O)c1ccccc12 (configuration not stated)	inactive: 21.8%	–
COc1ccc(NC(=O)c2ccc(NC(=O)CN3CCC(C(N)=O)CC3)cc2)cc1	inactive: 7.62%	–
Cc1ccc(NC(=O)COc2nsnc2N2CCOCC2)cc1Cl	inactive: 3.55%	–
CC(=O)C1=C(NC(=O)c2ccc(C(F)(F)F)cc2)C[C@@H]2[C@H]1C2(C)C	inactive: -6.45%	–
CCOC(=O)N1CCC(NC(=O)c2cc(-c3ccc(F)cc3)[nH]c2C)CC1	inactive: -13.6%	–
CCn1nc(C)c(CNCc2cn[nH]c2-c2cc3ccccc3o2)c1C	inactive: 32.9%	–
O=C(c1ccccc1)N(Nc1ccccc1)c1ccccc1	inactive: 17.3%	–
COc1ccc(/C=N/N=C2\SC(CC(=O)O)C(=O)N2c2ccccc2)cc1 (configuration not stated)	inactive: 15.3%	–
